According to the supplement of paper PMC6089552:
The whole screen tested about 3,200 compounds, of which about 300 (9.4%) showed activity. This is a selection; strong and weak results do not stand in their true shares.

Tested on: A673/TR/shEF
Experiment: cell viability (LOESS-normalised, relative to median of negative controls) (log2 ratio); higher = more viable cells (less compound effect), active = hit call of the paper (over 3 MAD below the median)
Settings: treatment time: 72 h
Summary of the method: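 A673/TR/shEF Ewing sarcoma cells were plated at 1,500 per well in 384-well plates and cultured with or without doxycycline, added 24 h before compounds, to induce EWS-FLI1 shRNA knockdown. Library compounds at two or more concentrations, alongside DMSO controls, were applied for three days. Cell viability was measured by CellTiter-Glo luminescence on an Envision reader. Readings were LOESS-corrected per plate, divided by the median of negative controls and log2-transformed, and hits were wells lying at least three median absolute deviations from the median of all screened wells.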

[1] = 0.25 µM, library screen: screen1, EWS-FLI1 expression: high (no doxycycline)
[2] = 0.25 µM, library screen: screen1, EWS-FLI1 expression: low (doxycycline-induced shRNA knockdown)
[3] = 2.5 µM, library screen: screen1, EWS-FLI1 expression: high (no doxycycline)
[4] = 2.5 µM, library screen: screen1, EWS-FLI1 expression: low (doxycycline-induced shRNA knockdown)
[5] = 0.103 µM, library screen: screen3, EWS-FLI1 expression: high (no doxycycline)
[6] = 0.103 µM, library screen: screen3, EWS-FLI1 expression: low (doxycycline-induced shRNA knockdown)
[7] = 0.308 µM, library screen: screen3, EWS-FLI1 expression: high (no doxycycline)
[8] = 0.308 µM, library screen: screen3, EWS-FLI1 expression: low (doxycycline-induced shRNA knockdown)
[9] = 0.926 µM, library screen: screen3, EWS-FLI1 expression: high (no doxycycline)
[10] = 0.926 µM, library screen: screen3, EWS-FLI1 expression: low (doxycycline-induced shRNA knockdown)
[11] = 2.8 µM, library screen: screen3, EWS-FLI1 expression: high (no doxycycline)
[12] = 2.8 µM, library screen: screen3, EWS-FLI1 expression: low (doxycycline-induced shRNA knockdown)
[13] = 8.3 µM, library screen: screen3, EWS-FLI1 expression: high (no doxycycline)
[14] = 8.3 µM, library screen: screen3, EWS-FLI1 expression: low (doxycycline-induced shRNA knockdown)
[15] = 25 µM, library screen: screen3, EWS-FLI1 expression: high (no doxycycline)
[16] = 25 µM, library screen: screen3, EWS-FLI1 expression: low (doxycycline-induced shRNA knockdown)
[17] = 0.25 µM, library screen: screen2, EWS-FLI1 expression: high (no doxycycline)
[18] = 0.25 µM, library screen: screen2, EWS-FLI1 expression: low (doxycycline-induced shRNA knockdown)
[19] = 2.5 µM, library screen: screen2, EWS-FLI1 expression: high (no doxycycline)
[20] = 2.5 µM, library screen: screen2, EWS-FLI1 expression: low (doxycycline-induced shRNA knockdown)
[21] = 25 µM, library screen: screen2, EWS-FLI1 expression: high (no doxycycline)
[22] = 25 µM, library screen: screen2, EWS-FLI1 expression: low (doxycycline-induced shRNA knockdown)

Measured: cell viability (log2)

Cc1cc(=O)[nH]c(=S)[nH]1
inactive: [1] 0.12 | [2] 0.0466 | [3] 0.162 | [4] 0.133

NCC1COc2ccccc2O1 (stereo not drawn)
inactive: [1] 0.104 | [2] -0.0116 | [3] 0.0686 | [4] 0.0513

CCOc1cc2ncc(C#N)c(Nc3ccc(F)c(Cl)c3)c2cc1NC(=O)/C=C/CN(C)C
inactive: [5] 0.06 | [6] 0.0264 | [7] 0.0695 | [8] 0.0377 | [9] 0.0744 | [10] -0.098 | [13] -0.14 | [14] -0.477
active: [11] -0.201 | [12] -0.422 | [15] -1.43 | [16] -0.678

Cc1c(N(C)C)c(=O)n(-c2ccccc2)n1C
inactive: [1] 0.0406 | [2] 0.0855 | [3] 0.134 | [4] 0.102

Oc1c(Cl)cc(Cl)c(Cl)c1Cc1c(O)c(Cl)cc(Cl)c1Cl
inactive: [1] 0.107 | [2] 0.122 | [3] 0.135 | [4] 0.0898

CCN(CC)CCNC(=O)c1c(C)[nH]c(/C=C2\C(=O)Nc3ccc(F)cc32)c1C
active: [15] -0.697 | [16] -0.541

COc1ccc(/C=C/C(=O)Nc2ccccc2C(=O)O)cc1OC
inactive: [5] 0.0619 | [6] -0.0298 | [17] 0.153 | [18] 0.0355 | [7] -0.00626 | [8] 0.0321 | [9] 0.0957 | [10] 0.0642 | [19] 0.106 | [20] 0.00335 | [11] 0.026 | [12] 0.0457 | [13] -0.04 | [14] 0.0688 | [15] 0.0974 | [16] 0.042

CCOC(=O)C1=C(COCCN)NC(C)=C(C(=O)OC)C1c1ccccc1Cl (stereo not drawn)
inactive: [5] 0.118 | [6] 0.0485 | [7] 0.025 | [8] 0.0765 | [9] 0.0185 | [10] 0.0366 | [11] 0.0891 | [12] 0.028 | [13] 0.0206 | [14] 0.0165 | [15] 0.0234 | [16] -0.0161

Oc1ccc(/C=C/c2cc(O)cc(O)c2)cc1
active: [17] -1.5 | [18] -1.81 | [19] -2.99 | [20] -3.07 | [15] -0.23

CO[C@H]1CC2CC[C@@H](C)[C@@](O)(O2)C(=O)C(=O)N2CCCC[C@H]2C(=O)O[C@H]([C@H](C)C[C@@H]2CC[C@@H](OP(C)(C)=O)[C@H](OC)C2)CC(=O)[C@H](C)/C=C(\C)[C@@H](O)[C@@H](OC)C(=O)[C@H](C)C[C@H](C)/C=C/C=C/C=C/1C
active: [5] -0.93 | [6] -0.714 | [7] -0.852 | [8] -0.724 | [9] -0.888 | [10] -0.755 | [11] -0.837 | [12] -0.688 | [13] -0.983 | [14] -0.734 | [15] -1.05 | [16] -0.738

CCOc1ccc(C(=O)Nc2ccc(NC(=O)CC)cc2)cc1Cl
inactive: [1] 0.102 | [2] 0.0179 | [3] 0.0812 | [4] -0.0835

C[n+]1c2cc(N)ccc2cc2ccc(N)cc21
active: [19] -0.404 | [21] -4.23 | [22] -2.18

O=C(N[C@H](CO)[C@H](O)c1ccc([N+](=O)[O-])cc1)C(Cl)Cl
inactive: 0.025 µM, library screen: screen2, EWS-FLI1 expression: high (no doxycycline) 0.147 | 0.025 µM, library screen: screen2, EWS-FLI1 expression: low (doxycycline-induced shRNA knockdown) 0.0538 | [5] 0.125 | [6] 0.0882 | [1] 0.0946 | [2] 0.141 | [17] 0.177 | [18] 0.067 | [7] 0.0951 | [8] 0.122 | [9] 0.0751 | [10] 0.12 | [3] 0.152 | [4] 0.143 | [19] 0.0948 | [20] 0.142 | [11] 0.0465 | [12] 0.194 | [13] 0.139 | [14] 0.109 | [21] 0.0991 | [22] 0.027 | [15] 0.119 | [16] 0.0928

O=C(O)CCNC(=O)c1ccccc1
inactive: [1] 0.12 | [2] -0.0698 | [3] 0.206 | [4] 0.0272

NC/C=C/C(=O)O
inactive: [17] 0.0937 | [18] 0.0677 | [19] 0.0994 | [20] 0.0371

CC(=O)O[C@H]1CC[C@@]2(C)[C@@H](CC[C@@H]3[C@@H]2CC[C@]2(C)[C@@H]4[C@H](C[C@@H]32)O[C@]2(CC[C@@H](C)CO2)[C@H]4C)C1
inactive: [1] 0.0876 | [2] 0.0708 | [3] 0.176 | [4] 0.151
